Data from patent US20090214547A1.

Key:
Peptide GNT-10 = assay: peptide ELISA, plate 2
Peptide GNT-062 = assay: peptide ELISA, plate 2
Peptide GNT-08 [1] = assay: peptide ELISA, plate 2
Peptide GNT-03 [2] = assay: peptide ELISA, plate 2
Peptide GNT-06 [3] = assay: peptide ELISA, plate 2
Peptide GNT-13 [4] = assay: peptide ELISA, plate 2
PsaA Peptide 9144 [5] = assay: peptide ELISA, plate 2
Peptide GNT-04 = assay: peptide ELISA, plate 2
Peptide GNT-14 [6] = assay: peptide ELISA, plate 2
Peptide GNT-09 [7] = assay: peptide ELISA, plate 2
PLY Peptide 10146 [8] = assay: peptide ELISA, plate 1
Peptide GNT-08 [9] = assay: peptide ELISA, plate 1
Peptide GNT-13 [10] = assay: peptide ELISA, plate 1
PsaA Peptide 9144 [11] = assay: peptide ELISA, plate 1
Peptide GNT-14 [12] = assay: peptide ELISA, plate 1
Peptide GNT-02 [13] = assay: peptide ELISA, plate 1
Peptide GNT-01 [14] = assay: peptide ELISA, plate 1
PLY Peptide 10146 [15] = assay: peptide ELISA, plate 1 overview
Peptide GNT-07 [16] = assay: peptide ELISA, plate 1 overview
PsaA Peptide 9144 [17] = assay: peptide ELISA, plate 1 overview
Peptide GNT-02 [18] = assay: peptide ELISA, plate 1 overview
Peptide GNT-01 [19] = assay: peptide ELISA, plate 1 overview
PLY Peptide 10146 [20] = assay: peptide ELISA, plate 2 overview
Peptide GNT-07 [21] = assay: peptide ELISA, plate 2 overview
Peptide GNT-03 [22] = assay: peptide ELISA, plate 2 overview
Peptide GNT-06 [23] = assay: peptide ELISA, plate 2 overview
PsaA Peptide 9144 [24] = assay: peptide ELISA, plate 2 overview
Peptide GNT-02 [25] = assay: peptide ELISA, plate 2 overview
Peptide GNT-01 [26] = assay: peptide ELISA, plate 2 overview
Peptide GNT-09 [27] = assay: peptide ELISA, plate 2 overview

B1: 26-5F12.1 (antibody, V domains shown)
VH: VKLQESGAEVKKPGASVKVSCTASGYIFTSYAIHWVRQAPGQRLEWMGWINAGYGNTKYSQKFQGRVSITRDKSASTAYMELSSLRSEDTAVYYCARRGQQLAFDYWGQGTTVTVSS
VL: [about 100 residues omitted here]
Question: B1 was tested. Which Elisa reading (Peptide GNT-10) did it give?
Answer: 0.09

Question: What about the Elisa reading (Peptide GNT-062) of the same binder?
Answer: 0.107

Question: And the Elisa reading (Peptide GNT-08 [1])?
Answer: 0.761

Question: And the Elisa reading (Peptide GNT-03 [2])?
Answer: 2.81

Question: What about the Elisa reading (Peptide GNT-06 [3]) of the same binder?
Answer: 0.104

Question: What about the Elisa reading (Peptide GNT-13 [4]) of the same binder?
Answer: 0.09

Question: And the Elisa reading (PsaA Peptide 9144 [5])?
Answer: 0.069

Question: What about the Elisa reading (Peptide GNT-04) of the same binder?
Answer: 0.262

Question: What about the Elisa reading (Peptide GNT-14 [6]) of the same binder?
Answer: 0.092

Question: And the Elisa reading (Peptide GNT-09 [7])?
Answer: 0.293

Question: What about the Elisa reading (PLY Peptide 10146 [8]) of the same binder?
Answer: 2.56 and 3

Question: What about the Elisa reading (Peptide GNT-08 [9]) of the same binder?
Answer: 1.23 and 0.89 and 1.09

Question: And the Elisa reading (Peptide GNT-13 [10])?
Answer: 0.09

Question: What about the Elisa reading (PsaA Peptide 9144 [11]) of the same binder?
Answer: 0.09 and 0.08 and 0.07

Question: And the Elisa reading (Peptide GNT-14 [12])?
Answer: 0.08 and 0.09

Question: What about the Elisa reading (Peptide GNT-02 [13]) of the same binder?
Answer: 3

Question: And the Elisa reading (Peptide GNT-01 [14])?
Answer: 1.68 and 2.98 and 3

Question: What about the Elisa reading (PLY Peptide 10146 [15]) of the same binder?
Answer: 2.56

Question: And the Elisa reading (Peptide GNT-07 [16])?
Answer: 0.21

Question: And the Elisa reading (PsaA Peptide 9144 [17])?
Answer: 0.09

Question: What about the Elisa reading (Peptide GNT-02 [18]) of the same binder?
Answer: > 3

Question: What about the Elisa reading (Peptide GNT-01 [19]) of the same binder?
Answer: 1.68

Question: And the Elisa reading (PLY Peptide 10146 [20])?
Answer: > 3

Question: What about the Elisa reading (Peptide GNT-07 [21]) of the same binder?
Answer: 0.13

Question: What about the Elisa reading (Peptide GNT-03 [22]) of the same binder?
Answer: 2.81

Question: What about the Elisa reading (Peptide GNT-06 [23]) of the same binder?
Answer: 0.1

Question: And the Elisa reading (PsaA Peptide 9144 [24])?
Answer: 0.07

Question: And the Elisa reading (Peptide GNT-02 [25])?
Answer: > 3

Question: And the Elisa reading (Peptide GNT-01 [26])?
Answer: > 3

Question: What about the Elisa reading (Peptide GNT-09 [27]) of the same binder?
Answer: 0.29

Where “and” joins values, the source holds several entries; their conditions need not be identical. Identical values can stand only once.
